From PubChem BioAssay AID1347073 (National Center for Advancing Translational Sciences (NCATS), 2019)
In all, about 45,000 compounds went through this assay and about 200 (0.44%) were called active. About 7% were inconclusive and are not listed. Calls follow the shape of the dose curve; as a rule, active = well fitted activation curve with a large enough effect; inconclusive = small, poorly fitted or top-dose-only effect; inactive = no such curve, though single readings can be large or run the other way. This is one part of the list.

Test: qHTS of TDP-43 Inhibitors: NCGC Sytravon Library Screen; also: 0% is about no effect; nearly all actives have a fitted effect of over 55% in size
Conditions: yeast TDP-43 toxicity rescue, BacTiter-Glo growth, 24 h; series mostly up to 46.1 µM; growth rescue (activation): at the top concentration
In short: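 TDP-43-expressing yeast, pregrown in raffinose, seeded at OD600 0.02 in galactose medium with compound for 24 hr at 30 deg C. Growth read by BacTiter-Glo luminescence, so rescue of toxicity appears as activation.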

Question: Which “growth rescue (activation)” value does the source give for COc1ccc(-c2c[n+]3c(n2-c2ccc(C)cc2)CCCCC3)cc1 here?
Answer: Its value is inactive: -7.99%.

Question: Which “growth rescue (activation)” value does the source give for COc1ccccc1N(C(=O)c1snc(C(N)=O)c1N)C(C(=O)NC1CCCC1)c1ccc2ncccc2c1 (stereo unspecified) here?
Answer: Its value is inactive: 13.7%.

Question: Which “growth rescue (activation)” value does the source give for Cc1ccc(NC(=O)C(=O)NNC(=O)c2ccccc2C)cc1Cl here?
Answer: Its value is inactive: 12.8%.

Question: For CCCCCC(=O)N/N=C/c1ccccc1[N+](=O)[O-], which “growth rescue (activation)” value is on record?
Answer: The value was inactive: 18.9%.

Question: For O=C(C[n+]1ccc(C(=O)c2ccccc2)cc1)Nc1ccccc1OC(F)F, which “growth rescue (activation)” value is on record?
Answer: The value was inactive: 9.85%.

Question: With Cc1ccc(S(=O)(=O)NNc2nnc(C)c(=O)[nH]2)cc1 as the molecule, how does the “growth rescue (activation)” value read?
Answer: Its value is inactive: 10%.

Question: Which “growth rescue (activation)” value does the source give for CCN(CC)CCNC(=S)Nc1ccc2nc3n(c(=O)c2c1)CCCCC3 here?
Answer: The value was inactive: 13.7%.

Question: With COc1cc(OC)cc(C(=O)OCC(=O)NCc2ccc3c(c2)OCO3)c1 as the molecule, how does the “growth rescue (activation)” value read?
Answer: The value was inactive: 3.69%.

Question: For O=C(Nc1ccc(F)cc1F)c1cncc(Br)c1, which “growth rescue (activation)” value is on record?
Answer: The value was inactive: 26.6%.

Question: Which “growth rescue (activation)” value does the source give for CC(C)[C@H](NS(=O)(=O)c1cccc(C(F)(F)F)c1)C(=O)OCC(N)=O here?
Answer: The value was inactive: 20.9%.

Question: With COC(=O)Cc1ccc(NC(=S)Nc2ccc(N3CCOCC3)cc2)cc1 as the molecule, how does the “growth rescue (activation)” value read?
Answer: Its value is inactive: -6.46%.

Question: Which “growth rescue (activation)” value does the source give for O=C(CN1CCN(C(=O)c2ccc(OCc3cn4ccccc4n3)cc2)CC1)Nc1cccc(F)c1 here?
Answer: Its value is inactive: -5.27%.

Question: Which “growth rescue (activation)” value does the source give for O=C(O)c1cccc(N2C(=O)Nc3ccccc3N2O)c1 here?
Answer: The value was inactive: -6.45%.

Question: Which “growth rescue (activation)” value does the source give for CC(=O)Nc1ccc(S(=O)(=O)NCC(=O)NCCc2ccc(S(N)(=O)=O)cc2)cc1 here?
Answer: The value was inactive: 12.1%.

Question: With CC(=O)NC1=NN(C(C)=O)C(c2ccccn2)S1 (stereo unspecified) as the molecule, how does the “growth rescue (activation)” value read?
Answer: Its value is inactive: -4.87%.

Question: For CN(C)CCNS(=O)(=O)c1ccc(N2CCN(c3ccc(F)cc3)CC2)c([N+](=O)[O-])c1, which “growth rescue (activation)” value is on record?
Answer: Its value is inactive: 20%.

Question: For Cc1cc(C)cc(C(=O)NCC(=O)OCC(=O)N(C)C2CCS(=O)(=O)C2)c1 (stereo unspecified), which “growth rescue (activation)” value is on record?
Answer: Its value is inactive: -21.7%.

Question: Which “growth rescue (activation)” value does the source give for COC(=O)Cn1c(C)nc(=O)c(-c2ccccc2)c1C here?
Answer: Its value is inactive: -3.74%.

Question: Which “growth rescue (activation)” value does the source give for COc1cc(CC(=O)NCC(C)(C)N2CCOCC2)cc(OC)c1OC here?
Answer: The value was inactive: -7.03%.

Question: Which “growth rescue (activation)” value does the source give for CCCn1c(=N)n(CC(O)c2ccc(C)cc2)c2ccccc21 (stereo unspecified) here?
Answer: The value was inactive: 2.31%.

Question: Which “growth rescue (activation)” value does the source give for Cc1ccc(NS(=O)(=O)c2c(F)cc(F)c(Cl)c2F)cc1S(=O)(=O)N1CCOCC1 here?
Answer: Its value is inactive: 3.97%.

Question: With COc1cccc(CCc2nnc(CCC(=O)N3CCN(Cc4ccccn4)CC3)o2)c1 as the molecule, how does the “growth rescue (activation)” value read?
Answer: Its value is inactive: 1.58%.

Question: Which “growth rescue (activation)” value does the source give for COc1ccc(CCNC(=O)c2ccc3c(c2)NC(=O)C(N2CCOCC2)S3)cc1OC (stereo unspecified) here?
Answer: Its value is inactive: 14%.

Question: Which “growth rescue (activation)” value does the source give for O=C(CCCn1c(=O)c2sccc2n(Cc2ccc(Cl)cc2)c1=O)NCc1ccc2c(c1)OCO2 here?
Answer: Its value is inactive: 17.5%.

Question: Which “growth rescue (activation)” value does the source give for CCCOC(=O)c1sc2nc3c(cc2c1N)C(=O)CCC3 here?
Answer: Its value is inactive: 20.9%.

Question: For O=C(NNS(=O)(=O)c1ccccc1)C1CCCCC1, which “growth rescue (activation)” value is on record?
Answer: The value was inactive: 1.2%.

Question: With NC(=O)N/N=C/c1ccc(N2CCOCC2)s1 as the molecule, how does the “growth rescue (activation)” value read?
Answer: The value was inactive: -35.9%.

Question: With COc1ccc(N2CC(C)Cn3c2nc2c3c(=O)[nH]c(=O)n2C)cc1 (stereo unspecified) as the molecule, how does the “growth rescue (activation)” value read?
Answer: The value was inactive: -8.62%.

Question: Which “growth rescue (activation)” value does the source give for CSc1nsc(SCC(=O)Nc2cccc(C(=O)O)c2)n1 here?
Answer: The value was inactive: -5.3%.

Question: With COc1ccc(O)c(C2=Nc3ccccc3N=C(c3ccco3)C2)c1 as the molecule, how does the “growth rescue (activation)” value read?
Answer: The value was inactive: -3.76%.

Question: With COc1cccc(C(=O)OCC(=O)N2CCc3ccccc3C2)c1OC as the molecule, how does the “growth rescue (activation)” value read?
Answer: Its value is inactive: 22.7%.

Question: For O=C(OC1CCOC1=O)c1ccc(Cl)c(S(=O)(=O)N2CCCCC2)c1 (stereo unspecified), which “growth rescue (activation)” value is on record?
Answer: The value was inactive: 17.6%.

Question: Which “growth rescue (activation)” value does the source give for Fc1ccccc1/C=N/n1cc(-c2ccccc2)[nH]c1=S here?
Answer: The value was inactive: 11.1%.

Question: With COC(=O)C1(CCSC)NC(c2ccc(O)c(OC)c2)C2C(=O)N(c3ccc(C)cc3)C(=O)C21 (stereo unspecified) as the molecule, how does the “growth rescue (activation)” value read?
Answer: Its value is inactive: 8.53%.

Question: Which “growth rescue (activation)” value does the source give for COc1cc(S(=O)(=O)N2CCN(C(=O)c3ccccc3)CC2)c(OC)cc1Br here?
Answer: The value was inactive: 13.9%.

Question: Which “growth rescue (activation)” value does the source give for CCC1C(=O)N=C(SCC(=O)Nc2nc3ccccc3s2)NC1=O (stereo unspecified) here?
Answer: The value was inactive: -8.29%.

Question: For Nc1ncc(-c2ccccc2)c(-c2ccc(O)cc2O)n1, which “growth rescue (activation)” value is on record?
Answer: Its value is inactive: -2.75%.

Question: Which “growth rescue (activation)” value does the source give for CCN(CC)c1nc(-c2ccc(C(=O)NN)cc2)nc(-c2ccc(C(=O)NN)cc2)n1 here?
Answer: The value was inactive: -6.21%.

Question: With COc1ccc(OCC(=O)N/N=C(\C)CC(=O)Nc2cccc([N+](=O)[O-])c2)cc1 as the molecule, how does the “growth rescue (activation)” value read?
Answer: Its value is inactive: 16.7%.

Question: With Cc1cc(/C=C2/NC(=O)NC2=O)c(C)n1-c1ccccn1 as the molecule, how does the “growth rescue (activation)” value read?
Answer: The value was inactive: -17.2%.

Question: Which “growth rescue (activation)” value does the source give for O=C(COC(=O)[C@@H]1CC(O)CN1S(=O)(=O)c1ccccc1[N+](=O)[O-])Nc1ccc2ccccc2c1 (stereo partly specified) here?
Answer: Its value is inactive: 27.5%.

Question: With CCc1nc2nc(C)c(NS(=O)(=O)c3ccc(C)c(C)c3)c(=O)n2[nH]1 as the molecule, how does the “growth rescue (activation)” value read?
Answer: Its value is inactive: 14.2%.

Question: With Cc1ccc(NC(=O)N2CCCC2C(=O)Nc2c(C)cc(C)cc2C)cc1 (stereo unspecified) as the molecule, how does the “growth rescue (activation)” value read?
Answer: The value was inactive: 4.45%.

Question: With COc1ccccc1N(C)S(=O)(=O)c1ccc(C(=O)Nc2ccc(N3CCOCC3)cc2)cc1 as the molecule, how does the “growth rescue (activation)” value read?
Answer: The value was inactive: 15.9%.

Question: With N=c1c2c(ncn1Cc1ccco1)Oc1c(ccc3ccccc13)C2c1ccccc1 (stereo unspecified) as the molecule, how does the “growth rescue (activation)” value read?
Answer: The value was inactive: 17.3%.

Question: With COc1ccc(CNC(=O)c2ccc(-c3ccc(F)c(F)c3)c3ccoc23)cc1OC as the molecule, how does the “growth rescue (activation)” value read?
Answer: The value was inactive: 13.3%.

Question: With O=C(NCc1cccnc1)c1ccccc1-c1nc(-c2ccccc2)no1 as the molecule, how does the “growth rescue (activation)” value read?
Answer: Its value is inactive: 0.781%.

Question: For O=C(NC1CCCCCC1)c1cc(-c2ccccn2)nc2ccccc12, which “growth rescue (activation)” value is on record?
Answer: Its value is inactive: 6.75%.

Question: Which “growth rescue (activation)” value does the source give for COc1ccc(/C=C/C(=O)N/C(=C\c2ccco2)C(=O)NCCc2nc3ccccc3[nH]2)cc1 here?
Answer: Its value is inactive: 10.2%.

Question: Which “growth rescue (activation)” value does the source give for COc1cc(C)c(Cl)cc1S(=O)(=O)n1ccnc1 here?
Answer: Its value is inactive: -9.14%.

Question: With CCn1cc([N+](=O)[O-])nc1C as the molecule, how does the “growth rescue (activation)” value read?
Answer: Its value is inactive: -25.7%.

Question: Which “growth rescue (activation)” value does the source give for CCCNC(=O)C1(C)CCCN(Cc2ccc(-n3ccnc3)cc2)C1 (stereo unspecified) here?
Answer: The value was inactive: 11.3%.

Question: With Nc1c(C(=O)O)sc2nc(-c3ccccc3)cc(-c3ccc(Cl)cc3)c12 as the molecule, how does the “growth rescue (activation)” value read?
Answer: Its value is inactive: -5.74%.

Question: For COc1cccc(/C=N/NC(=O)CNC(=O)C(c2ccccc2)c2ccccc2)c1O, which “growth rescue (activation)” value is on record?
Answer: The value was inactive: -0.51%.

Question: With CCC(=O)N/N=C/c1ccc(-c2ccc([N+](=O)[O-])cc2)o1 as the molecule, how does the “growth rescue (activation)” value read?
Answer: Its value is inactive: 23.7%.

Question: Which “growth rescue (activation)” value does the source give for N=c1sccn1CC(=O)NC(=O)NC1CCCC1 here?
Answer: Its value is inactive: 9.55%.

Question: For Cc1cc(Br)ccc1NC(=O)C1C2CCC(O2)C1C(=O)O (stereo unspecified), which “growth rescue (activation)” value is on record?
Answer: Its value is inactive: -6.91%.

Question: Which “growth rescue (activation)” value does the source give for Cc1ccc(-c2nn(C)c(=O)c3ccccc23)cc1S(=O)(=O)NCCCN(C)C here?
Answer: Its value is inactive: 6.78%.

Question: For O=C(Oc1ccc(NC2=NS(=O)(=O)c3ccccc32)cc1)c1cccnc1, which “growth rescue (activation)” value is on record?
Answer: Its value is inactive: 3.63%.

Question: Which “growth rescue (activation)” value does the source give for Cc1c(C(=O)c2ccc([N+](=O)[O-])cc2)c(=O)n(C)c(=O)n1C here?
Answer: Its value is inactive: 19.4%.

Question: With O=C1CN(C(=O)COC(=O)CCC(=O)c2ccc(Cl)cc2)c2ccccc2N1 as the molecule, how does the “growth rescue (activation)” value read?
Answer: Its value is inactive: 7.9%.

Question: For CC(=O)NCCNc1nc2cc(-c3ccc(Cl)cc3C)sc2c(=O)n1C, which “growth rescue (activation)” value is on record?
Answer: Its value is inactive: 4.09%.

Question: With Cc1ccc(NC(=O)c2ccc(OCC3CCCO3)cc2)c(C)c1 (stereo unspecified) as the molecule, how does the “growth rescue (activation)” value read?
Answer: The value was inactive: 8.01%.

Question: For Cc1cccc(N(C(=O)CCC(=O)Nc2nccs2)C(C(=O)NC(C)(C)C)c2ccc(O)cc2)c1 (stereo unspecified), which “growth rescue (activation)” value is on record?
Answer: The value was inactive: 8.35%.

Question: With COC(=O)c1ccc(NC(=O)Nc2ccccc2F)cc1 as the molecule, how does the “growth rescue (activation)” value read?
Answer: Its value is inactive: -1.18%.

Question: For COc1ccc(/C=C2\CCC/C(=C\C=N\N(C)C)C2=O)cc1, which “growth rescue (activation)” value is on record?
Answer: The value was inactive: 15.8%.
